Experimental data as given in PubChem BioAssay AID504332 (National Center for Advancing Translational Sciences (NCATS), 2011).
The campaign covered roughly 350,000 compounds. About 31,000 (8.9%) were called active. Inconclusive means that the source gave no clear call. Such entries were picked first, then a sample of the others. The call rests on the fitted dose curve; in most records, active means well fitted inhibition curve with a large enough effect; inconclusive means small, poorly fitted or top-dose-only effect; inactive means no such curve, though single readings can be large or run the other way. A potency beside an inconclusive call is a rough fit, not a confirmed value.

molecular target: Histone-lysine N-methyltransferase EHMT2 (Homo sapiens) (UniProt Q96KQ7); experiment: qHTS Assay for Inhibitors of Histone Lysine Methyltransferase G9a; conditions: G9a H3K9 monomethylation, AlphaScreen, 2 h; activity, negative = inhibition: at 59 µM (top of the series) unless noted; further: nearly all actives have a fitted effect of over 75% in size
Chain of UniProt Q96KQ7 (Q96KQ7 whole entry, looked up): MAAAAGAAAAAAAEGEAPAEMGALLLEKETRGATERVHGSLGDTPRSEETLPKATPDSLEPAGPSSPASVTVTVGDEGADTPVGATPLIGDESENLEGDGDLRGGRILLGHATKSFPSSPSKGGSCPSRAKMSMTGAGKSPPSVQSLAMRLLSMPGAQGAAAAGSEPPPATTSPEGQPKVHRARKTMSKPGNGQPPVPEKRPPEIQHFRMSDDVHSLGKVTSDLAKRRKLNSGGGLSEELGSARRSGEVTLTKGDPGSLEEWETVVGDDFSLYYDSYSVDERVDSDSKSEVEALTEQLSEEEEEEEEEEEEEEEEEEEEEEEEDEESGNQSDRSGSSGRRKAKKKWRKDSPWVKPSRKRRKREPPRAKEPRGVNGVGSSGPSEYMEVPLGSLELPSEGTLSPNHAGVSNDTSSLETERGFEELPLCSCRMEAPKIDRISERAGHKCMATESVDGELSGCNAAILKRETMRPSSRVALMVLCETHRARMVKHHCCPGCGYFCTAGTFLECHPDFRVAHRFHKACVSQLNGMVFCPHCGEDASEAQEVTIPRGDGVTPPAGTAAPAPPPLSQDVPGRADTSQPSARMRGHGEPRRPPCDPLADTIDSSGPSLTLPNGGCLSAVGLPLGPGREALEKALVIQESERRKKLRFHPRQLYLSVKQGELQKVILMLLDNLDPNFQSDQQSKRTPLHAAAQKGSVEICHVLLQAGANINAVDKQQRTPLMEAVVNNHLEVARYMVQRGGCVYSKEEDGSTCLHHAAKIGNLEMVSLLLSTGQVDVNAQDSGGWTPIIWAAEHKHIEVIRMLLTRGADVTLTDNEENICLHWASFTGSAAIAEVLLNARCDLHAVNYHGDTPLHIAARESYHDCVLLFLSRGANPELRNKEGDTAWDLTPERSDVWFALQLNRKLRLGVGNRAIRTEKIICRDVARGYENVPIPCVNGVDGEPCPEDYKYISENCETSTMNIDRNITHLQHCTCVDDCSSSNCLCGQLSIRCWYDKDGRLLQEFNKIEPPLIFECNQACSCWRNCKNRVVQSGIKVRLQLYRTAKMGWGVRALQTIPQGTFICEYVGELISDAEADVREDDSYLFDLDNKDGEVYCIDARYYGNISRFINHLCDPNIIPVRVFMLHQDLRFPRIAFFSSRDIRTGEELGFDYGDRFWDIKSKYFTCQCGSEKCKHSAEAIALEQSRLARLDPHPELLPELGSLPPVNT
Procedure, shortened: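 Compounds were preincubated with 20 nM G9a for 15 min, after which biotinylated H3K9 peptide (500 nM) and SAM (20 uM) started a 2 h room-temperature reaction. Monomethylated product was quantified by antibody-based AlphaScreen chemiluminescence.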
On the % scale 0 is the no-effect control and ±100 the full control effect; potency means the concentration at half of the fitted maximal effect; tags describe the fitted curve by direction and shape.

Structure (SMILES) | Potency | activity, negative = inhibition
COc1ccc(CN(Cc2ccc(C(=O)O)cc2)C(=S)Nc2cccc(C)c2)cc1OC | inconclusive: 50.1 µM [inhibitor, single point] | 
Cc1c(C(=O)NCCSCc2ccc(Cl)cc2Cl)cccc1[N+](=O)[O-] | inconclusive: 39.8 µM [inhibitor, partial curve, poor fit] | 
C/C(CC(=O)Nc1cccc(Cl)c1Cl)=N\NC(=O)C(=O)N1CCCC1 | inconclusive: 56.2 µM [inhibitor, partial curve, poor fit] | 
CN(CCCN1c2ccccc2CCc2ccccc21)CC(=O)c1ccc(Cl)cc1 | inconclusive: 1.26 µM [inhibitor, partial curve, poor fit] | 
O=C(CSCc1nc2ccccc2[nH]1)N1CCN(c2cccc(Cl)c2)CC1 | inconclusive: 89.1 µM [inhibitor, partial curve, poor fit] | 
COc1ccc(C2CC(=O)C3=C(C2)Nc2ccccc2NC3c2coc3ccccc3c2=O)cc1OC (stereo not given) | inconclusive: 15.8 µM [inhibitor, single point] | 
Cc1cc2nnc(SC3CCCCN(C(=O)c4ccc(F)cc4)C3=O)n2c2ccccc12 (stereo not given) | active: 39.8 µM | 
CC(C)CC1NC(=O)N(Cc2nc3ccccc3s2)C1=O (stereo not given) | inconclusive: 0.891 µM [inhibitor, single point] | 
CCOc1cccc(C2c3c(oc4ccccc4c3=O)C(=O)N2c2ccccn2)c1 (stereo not given) | inconclusive: 89.1 µM [inhibitor, single point] | 
Cc1cccc(OCC(O)Cn2c(=N)n(CCN3CCOCC3)c3ccccc32)c1 (stereo not given) | inconclusive: 89.1 µM [inhibitor, single point] | 
COc1ccc(NS(=O)(=O)c2cccc(C(=O)NNC(=O)CNC(=O)c3ccc(C)cc3)c2)cc1 |  | inactive: 1.57% [at 0.501 µM]
C/C(=N\NC(=S)Nc1ccc(C)c(C)c1)c1ccc(N2CCOCC2)cc1 | inconclusive: 20 µM [inhibitor, single point] | 
COc1ccc(C2CC(=O)c3cc(-c4nc(-c5ccc(C)cc5)cs4)c(=O)[nH]c3C2)cc1 (stereo not given) | active: 1.78 µM | 
Cc1c(C(=O)O)cccc1-c1ccc(C=O)o1 | inconclusive: 39.8 µM [inhibitor, single point] | 
Cc1cccc(NC(=O)CSc2nc3ccc(N4C(=O)c5ccccc5C4=O)cc3s2)c1C | inconclusive: 89.1 µM [inhibitor, single point] | 
Cc1ccc(/C(O)=C/C(=O)C(=O)NC23CC4CC(CC(C4)C2)C3)cc1 | inconclusive: 7.94 µM [inhibitor, full curve] | 
Cc1c(C(=O)NCc2cccnc2)oc2ccc(S(=O)(=O)N3CCCCCC3)cc12 | inconclusive: 25.1 µM [inhibitor, single point] | 
CCCNC(=O)c1ccc(COc2cccc3ccccc23)o1 | inconclusive: 89.1 µM [inhibitor, single point] | 
CCCCC(=O)Nc1ccc(C)c(S(=O)(=O)N2CCCCCC2)c1 | inconclusive: 7.08 µM [inhibitor, single point] | 
Cn1nc([N+](=O)[O-])nc1Sc1cccc2cccnc12 |  | inactive: 6.15% [at 0.501 µM]
CC[C@H](C)[C@H](NC(=O)c1ccccc1)C(=O)Nc1ccc(S(=O)(=O)Nc2cc(C)nc(C)n2)cc1 | inconclusive: 70.8 µM [inhibitor, partial curve] | 
Cc1cc(C)nc(NS(=O)(=O)c2ccc(N/C=C3\CCCC3=O)cc2)n1 | inconclusive: 35.5 µM [inhibitor, single point] | 

Structure (SMILES) | Potency | activity, negative = inhibition
CCC(Oc1ccccc1)C(=O)Nc1cc(-c2ccccc2F)nn1-c1ccccc1 (stereo not given) |  | inactive: 0.491%
C=CCNC(=O)/C(C#N)=C/c1cn(-c2ccccc2)nc1-c1ccc(OC)c([N+](=O)[O-])c1 | inconclusive: 17.8 µM [inhibitor, partial curve, poor fit] | 
Cc1cc(C)n(CCc2nc(-c3cccs3)cs2)n1 | inconclusive: 39.8 µM [inhibitor, single point] | 
Cc1sc2nc(SCC(=O)Nc3c(C)n(C)n(-c4ccccc4)c3=O)n(C)c(=O)c2c1C |  | inconclusive: -60.1% [inhibitor]
Cc1c(C(=O)NC(=S)Nc2ccccc2N2CCCC2)cccc1[N+](=O)[O-] | active: 14.1 µM | 
CCOc1cc(C2C3=C(CC(C)(C)CC3=O)Nc3n[nH]c(C)c32)ccc1O (stereo not given) |  | inactive: -34% [at 102 µM]
COc1ccccc1NS(=O)(=O)c1cc(NC(=S)Nc2cc(C)cc(C)c2)ccc1Cl | inconclusive: 89.1 µM [inhibitor, single point] | 
O=C(NC(=S)N(CCCCO)C1CCCCC1)c1sc2ccccc2c1Cl | inconclusive: 63.1 µM [inhibitor, single point] | 
Cc1ccc(/C(O)=C2/C(=O)C(=O)N(CCN3CCOCC3)C2c2cccnc2)cc1 (stereo not given) | inconclusive: 31.6 µM [inhibitor, single point] | 
Nc1nnnn1/N=C/c1ccccc1OCc1ccc(Cl)cc1 |  | inactive: -6.65%
S=c1[nH]nc(-c2cc(-c3ccccc3)n[nH]2)n1/N=C/c1ccc(Br)s1 | active: 28.2 µM | 
CCN(CC)S(=O)(=O)c1ccc(Cc2ncc(C(F)(F)F)cc2Cl)s1 | inconclusive: 89.1 µM [inhibitor, single point] | 
C[C@H]1c2cccc(O)c2C(O)=C2C(=O)[C@]3(O)C(O)=C(C(N)=O)C(=O)[C@@H](N(C)C)C3[C@@H](O)C21 (stereo not given in full) | active: 10 µM | 
COc1ccc(-c2noc(CCCC(=O)NCc3ccco3)n2)cc1OC | inconclusive: 89.1 µM [inhibitor, single point] | 
CCCCNC(=O)[C@@H]1CSC2c3ccccc3C(=O)N21 (stereo not given in full) |  | inactive: 10% [at 102 µM]
Cc1cccc(/C=N/n2c(-c3ccncc3)n[nH]c2=S)c1 | active: 1 µM | 
CCC(=O)N1CCc2cc(S(=O)(=O)NC(Cc3ccccc3)C(=O)NCc3ccccc3OC)ccc21 (stereo not given) |  | inactive: -4.11%
COc1ccc2[nH]cc(CCNC(=O)C3CC(=O)N(c4ccc(Cl)cc4)C3)c2c1 (stereo not given) | inconclusive: 79.4 µM [inhibitor, single point] | 
CCOC(=O)N1CCN(CC(=O)c2ccc(O)c(C)c2O)CC1 | inconclusive: 89.1 µM [inhibitor, single point] | 
CCC(CO)NCc1ccc(OCC(O)c2ccccc2)c(OC)c1 (stereo not given) | inconclusive: 79.4 µM [inhibitor, single point] | 
O=C(Nc1cccc([N+](=O)[O-])c1)c1ccc2nsnc2c1 | inconclusive: 1.78 µM [inhibitor, full curve] | 
Cc1cccc(NC(=O)c2ccc3[nH]c(C)cc(=O)c3c2)c1 | inconclusive: 39.8 µM [inhibitor, partial curve, poor fit] | 

Structure (SMILES) | Potency | activity, negative = inhibition
Cn1c(=O)[nH]c(=O)c2c1nc(CN1CCN(c3ccccc3)CC1)n2Cc1c(F)cccc1Cl | inconclusive: 39.8 µM [inhibitor, single point] | 
COc1ccccc1N1CCN(C2=NS(=O)(=O)c3ccccc32)CC1 | inconclusive: 89.1 µM [inhibitor, partial curve, poor fit] | 
CNC(=S)N/N=C/c1cn(Cc2ccc(F)cc2)c2ccccc12 |  | inactive: 47.7%
COc1ccc(CCCC(=O)NC2CCCCC2C)c(C)c1 (stereo not given) |  | inactive: 8.32% [at 102 µM]
COc1ccc(NC(=O)CN(C)CC(=O)Nc2ccccc2SC)cc1Cl | inconclusive: 22.4 µM [inhibitor, partial curve, poor fit] | 
O=c1cc(CSc2nnc(Nc3ccccc3F)s2)nc2sccn12 | inconclusive: 44.7 µM [inhibitor, partial curve] | 
CCOc1ccc(N(CC(=O)Nc2c(C)n(C)n(-c3ccccc3)c2=O)S(=O)(=O)c2ccc(F)cc2)cc1 | inconclusive: 39.8 µM [inhibitor, partial curve, poor fit] | 
Cc1ccc(S(=O)(=O)Nc2cc(-c3nn(C)c(=O)c4ccccc34)ccc2N2CCOCC2)cc1 | inconclusive: 35.5 µM [inhibitor, single point] | 
Cc1ccc(C)c(/C(O)=C2\C(=O)C(=O)N(Cc3cccnc3)C2c2cccnc2)c1 (stereo not given) |  | inconclusive: -58.2% [inhibitor]
COc1ccc(NC(=O)c2nnn(CC(=O)Nc3cccc(C)c3C)c2N)c(OC)c1 |  | inactive: -4.65%
Cc1ccc(C(=O)Nc2ncc(C)s2)s1 | inconclusive: 70.8 µM [inhibitor, single point] | 
CCOCCCn1c(SCC(=O)NCc2ccccc2)nc2c(sc3ccccc32)c1=O |  | inactive: -27.3%
Cc1cc2oc(=O)cc(CN3CCCCC3C)c2cc1C(C)C (stereo not given) | inconclusive: 100 µM [inhibitor, single point] | 
COc1ccc(-n2c(SCC(=O)NCCC(C)C)nc3ccsc3c2=O)cc1 | active: 25.1 µM | 
Nc1c(C(=O)NCc2ccco2)c2nc3ccccc3nc2n1CCc1ccccc1F | inconclusive: 28.2 µM [inhibitor, single point] | 
CCOC(=O)C1CCCN(C(=O)CCNS(=O)(=O)c2ccc3c(c2)CCC(=O)N3)C1 (stereo not given) |  | inactive: -3.51% [at 102 µM]
COc1cc([N+](=O)[O-])ccc1NC(=O)N1CCC2(CC1)Nc1ccccc1-n1cccc12 | inconclusive: 22.4 µM [inhibitor, partial curve, poor fit] | 
Cc1cccc(CCNC(=O)c2cc3c(=O)[nH]c4ccc(C)cc4c3s2)c1 |  | inactive: -1.07%
CCCn1nnnc1SCC(=O)NNC(=O)C1CCCCC1 | inconclusive: 63.1 µM [inhibitor, single point] | 
N/C(=C\C(=O)c1cc(Cl)ccc1O)C(Cl)(Cl)Cl | inconclusive: 79.4 µM [inhibitor, single point] | 
CCNc1ncc2ncc(=O)n(Cc3ccc(F)cc3)c2n1 |  | inactive: 14.6% [at 0.501 µM]
